PubChem BioAssay AID686979 (National Center for Advancing Translational Sciences (NCATS), 2013)
“And” between values parts separate entries of the source, which are not always exact repeats. Identical values can stand only once. The whole screen tested about 420,000 compounds, of which about 50,000 (12%) were called active. The inconclusive results got no clear call from the source; some entries with a clear call stand among them for comparison. The call rests on the fitted dose curve; in most records, active means well fitted inhibition curve with a large enough effect; inconclusive means small, poorly fitted or top-dose-only effect; inactive means flat fitted curve, though single readings scatter. Potencies of inconclusive entries are doubtful fits and often do not repeat.

Experiment: qHTS for Inhibitors of human tyrosyl-DNA phosphodiesterase 1 (TDP1): qHTS in cells in presence of CPT; further: nearly all actives have a fitted effect of over 55% in size
Settings: chicken DT40 Tdp1-/-;hTDP1 cells + 20 nM CPT, ATP luminescence, 48 h; activity change, negative = growth inhibition: at 46.2 µM (top of the series) unless noted
Method in brief: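 Cell growth measured by CellTiter-Glo luminescence after a minimum 48 h, 37 C compound exposure with 20 nM CPT in Tdp1-knockout DT40 cells stably expressing hTDP1, seeded 400/well; qHTS titration format.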
On the % scale 0 is the no-effect control and ±100 the full control effect; potency means the concentration at half of the fitted maximal effect; tags describe the fitted curve by direction and shape.

SMILES | Potency | activity change, negative = growth inhibition
c1ccc(C2=Nc3ccccc3NC(c3ccccc3)C2)cc1 (stereo unspecified) | inconclusive: 18.4 µM [inhibitor, single point] | 
Cn1c(=O)cc(OCCCC(=O)Nc2ccc3c(c2)OCCO3)c2ccccc21 | inconclusive: 11.6 µM [inhibitor, partial curve, poor fit] | 
COc1cc(-c2cc(NC=O)c3ncc(-c4cccc(C(=O)N(C)C)c4)n3c2)cc(OC)c1OC | inconclusive: 18.4 µM [inhibitor, single point] | 
O=C(NCCc1csc(-c2ccc(Cl)cc2)n1)c1ccco1 | inconclusive: 25.9 µM [inhibitor, single point] and inconclusive: 23.1 µM [inhibitor, single point] | 
COc1ccc(S(=O)(=O)N(Cc2ccccc2)c2ccccc2C(=O)Nc2ccccc2C(=O)NCc2ccco2)cc1 | inconclusive: 18.4 µM [inhibitor, single point] | 
COc1ccccc1Cc1c(-c2ccc(OC)c(OC)c2)nc2ccc(C)cn12 | inconclusive: 18.4 µM [inhibitor, single point] | 
CCOC(=O)c1cnc2ccccc2c1Nc1cccc(C(=O)O)c1 |  | inactive: 1.98%
COc1ccc(C2=Nc3ccccc3N(C(=O)c3ccc(C(F)(F)F)cc3)C2C(=O)Nc2c(C)cccc2C)cc1 (stereo unspecified) | inconclusive: 14.6 µM [inhibitor, single point] | 
COc1ccc(-c2noc(CN(C(=O)c3cccs3)C(C)C)n2)cc1 | inconclusive: 9.2 µM [inhibitor, partial curve, poor fit] | 
O=C(COC(=O)/C=C/c1ccc2ccccc2n1)NNC(=O)c1ccccc1 | inconclusive: 23.1 µM [inhibitor, single point] | 
COc1ccc(-c2nnn(CC(=O)NC(=O)NC3CCCCC3)n2)cc1OC | inconclusive: 20.6 µM [inhibitor, single point] | 
O=C(C1=C[C@H](c2coc3ccccc3c2=O)C[C@H](OCCCCO)O1)N1CCN(Cc2ccc3c(c2)OCO3)CC1 | active: 20.6 µM | 
CSc1nccc(-c2cc(Cl)c3c(c2)CC(CNC(=O)c2nonc2C)O3)n1 (stereo unspecified) | inconclusive: 20.6 µM [inhibitor, single point] | 
Cc1[nH]nc(-c2ccc(OCc3cnn(-c4ccccc4)c3)cc2O)c1Oc1ccccc1F | inconclusive: 29.1 µM [inhibitor, single point] | 
CC(=O)c1cccc(OCc2cc(C(=O)N(C)Cc3nccs3)no2)c1 | inconclusive: 29.1 µM [inhibitor, single point] | 
Cc1cc(C)nc(Nc2ccc(N3CCCC3)cc2)n1 | inconclusive: 18.4 µM [inhibitor, partial curve] | 
COc1ccc(/C=C/C(=O)NCc2cccnc2)cc1 |  | inactive: -1.27%
CCOC(=O)C1(CC2CCCCO2)CCN(Cc2nc3ccccc3nc2C)CC1 (stereo unspecified) | inconclusive: 25.9 µM [inhibitor, single point] | 
COc1cc(NC(=O)c2cc(Cl)ccc2Cl)ccc1NC(=O)c1cc2ccccc2o1 | active: 5.8 µM | 
COc1ccccc1C(=O)N=Nc1c(O)[nH]c2ccc([N+](=O)[O-])cc12 | inconclusive: 23.1 µM [inhibitor, single point] | 
COc1ccccc1-c1nnc(C2CCN(C(=O)c3cccc(Cl)c3)CC2)o1 | inconclusive: 29.1 µM [inhibitor, single point] | 
CCC(=O)Nc1c(-c2ccccc2Cl)c(=O)c2ccccc2n1C |  | inactive: -13.7%
Cc1cccc(C(c2sc3nc(-c4ccco4)nn3c2O)N2CCN(Cc3ccccc3)CC2)c1 (stereo unspecified) |  | inactive: -22.6%
Cc1ccc(CN(Cc2ccccn2)C(=O)Nc2ccc(C)c(C)c2)cc1 | inconclusive: 29.1 µM [inhibitor, single point] | 

SMILES | Potency | activity change, negative = growth inhibition
Cc1cccc(C)c1NCc1n[nH]c(=S)n1-c1ccccc1 |  | inactive: 11.9%
COc1cc(C2CC(=O)c3c([nH]c(C(=O)OCc4ccc(C)cc4)c3C)C2)cc(OC)c1OC (stereo unspecified) | active: 1.46 µM | 
O=C(COc1ccc(Cl)cc1Br)NC1CC1 | inconclusive: 25.9 µM [inhibitor, single point] | 
Clc1ccc(C[n+]2cc(-c3ccccc3)n3c2CCCCC3)c(Cl)c1 | active: 0.461 µM | 
CC(=O)Nc1ccc(S[C@@H](CCN2CC[C@H](C(C)(C)C)CCC2=O)c2ccccc2)cc1 | active: 20.6 µM | 
CSc1ccc(-c2sc(Nc3ccccc3)n[n+]2-c2ccc(F)cc2)cc1 | active: 11.6 µM | 
Cc1ccccc1NC(=O)Cn1c(=O)n(CCCCCC(=O)NCc2ccccc2Cl)c(=O)c2sccc21 | inconclusive: 29.1 µM [inhibitor, single point] | 
NNC(=O)c1sc(-c2ccc(Cl)cc2)cc1N |  | inactive: -11.3%
COCCCNC(=O)c1[nH]c2ccccc2c1Sc1ccc(C)cc1 |  | inactive: -16.1%
COc1cc(/C=N/Nc2nc(C)nc3c2cnn3-c2ccccc2)ccc1O | active: 2.91 µM | 
CCOC(=O)c1c(C)[nH]c(C(=O)OCC(=O)c2ccccc2)c1C | inconclusive: 29.1 µM [inhibitor, single point] | 
CN(C)c1ccc(CNC(=O)c2cnc3sc(N4CCCC4)nn3c2=O)cc1 |  | inactive: 1.06%
CC1CCCCC1Nc1ncnc2sccc12 (stereo unspecified) | active: 18.4 µM | 
CN(Cc1ccc(Cl)c(Cl)c1)C(=O)c1[nH]c(C(F)(F)F)nc1-c1ccccc1 | inconclusive: 16.4 µM [inhibitor, partial curve] | 
CC(=O)N1c2ccc(S(=O)(=O)N3CCCCC3)cc2CC1C(=O)Nc1cccc(C)c1 (stereo unspecified) | inconclusive: 20.6 µM [inhibitor, single point] | 
COc1cc(C(=O)Nc2ccc(C)cc2C(NCC(=O)NN)c2ccccc2)cc(OC)c1OC (stereo unspecified) |  | inactive: -2.77%
COc1cccc(-n2nnc3c(=O)n(CC(=O)OCc4ccccc4)cnc32)c1 | inconclusive: 20.6 µM [inhibitor, single point] | 
CCOC(=O)C1C(C(C)=O)=C(c2ccccc2)c2ccccc2N1S(=O)(=O)C(F)(F)F (stereo unspecified) | inconclusive: 23.1 µM [inhibitor, single point] | 
COc1ccc2[nH]c(C)c(C(=O)CN(C)C)c2c1 | inconclusive: 25.1 µM [inhibitor, single point] | 
CCS(=O)(=O)N1CCc2cc(C(=O)NCc3ccc(Cl)cc3)ccc21 | inconclusive: 18.4 µM [inhibitor, partial curve] | 
C[C@@H]1[C@H](c2ccccc2)OCCS(=O)(=O)N1Cc1ccccc1Br | inconclusive: 35.5 µM [inhibitor, single point] | 
O=C(NCc1ccccc1)c1ccc(OC2CSC2)cc1 |  | inactive: -4.74%
COCCNC(=O)C1CCCN(Cc2ccc(-c3ccccc3)cc2)CC1 (stereo unspecified) | inconclusive: 32.6 µM [inhibitor, single point] | 
CCCS(=O)(=O)NC(=O)C1(C)CCCN(C(=O)c2sccc2C)C1 (stereo unspecified) |  | inactive: -12.4%

SMILES | Potency | activity change, negative = growth inhibition
COC(=O)[C@]1(C)N[C@H](c2ccc(SC3CCCCC3)c(OC)c2)[C@@H]2C(=O)N(C)C(=O)[C@@H]21 | inconclusive: 29.1 µM [inhibitor, single point] | 
O=C(COC(=O)Cc1c[nH]c2ccccc12)Nc1cccc(Br)c1 |  | inactive: -20.3%
C=CCNC(=S)N/N=C/c1ccc(C)s1 | active: 4.61 µM | 
CCn1c(SCC(=O)N2CCCc3ccccc32)nnc1-c1ccoc1C |  | inactive: -11%
COc1ccc(CN(C)C[C@H]2Oc3c(NC(=O)Nc4ccccc4)cccc3C(=O)N([C@H](C)CO)C[C@@H]2C)cc1 | active: 16.4 µM | 
COc1cc(NC(=O)c2ccc(-c3cnn(C)c3)c3ccoc23)cc(OC)c1OC | inconclusive: 20.6 µM [inhibitor, partial curve, poor fit] | 
COc1ccc2c(c1)C(C)=CC(C)(C)N2S(=O)(=O)c1ccc(NC(C)=O)cc1 | active: 5.8 µM | 
CCOC(=O)CN1C(=O)C(=O)N(Cc2cccc(C)c2)C1=O |  | inactive: 8.18%
O=C(Cc1ccccc1)N(Cc1cccnc1)c1nc2ccc(Cl)cc2s1 | inconclusive: 23.1 µM [inhibitor, single point] | 
CCn1c(COc2ccccc2C)nnc1SCC(=O)CC(=O)Nc1ccccc1 |  | inconclusive: -33.4% [inhibitor]
CCOc1ccc(-n2c(SCC(N)=O)nc3sc4c(c3c2=O)CCN(C)C4)cc1 |  | inactive: -3.43%
Brc1ccc([C@H]2CN3CCSC3=N2)cc1 |  | inactive: -14.5%
Nc1ccc(C2=Nc3cccc4cccc(c34)N2)cc1 |  | inactive: -6.25%
CCOc1ccc(OCCC(=O)Nc2ccccc2C(=O)NC2CC2)cc1 |  | inactive: -14.9%
Cc1ccc(OC(=O)CCC(=O)Nc2ccc(C)c(C)c2)cc1 |  | inactive: -13.1%
COc1cc(C(=S)N2CCCC2)ccc1OCc1ccc(C)cc1 | inconclusive: 16.4 µM [inhibitor, single point] | 
O=C(Nc1cc(S(=O)(=O)N2CCCCC2)ccc1O)c1ccccc1NS(=O)(=O)c1ccc(F)c(F)c1 |  | inactive: -20.6%
Cc1ccc(NC(=O)c2cc(=O)[nH]c3ccccc23)cc1C |  | inactive: -12%
CC(=O)c1cccc(NC(=O)CSc2nnc3ccc(-c4ccc(F)cc4)nn23)c1 |  | inactive: 13.7%
COc1ccc(-c2cn(-c3ccccc3)nc2CO)cc1 | inconclusive: 0.146 µM [inhibitor, full curve, poor fit] | 
O=c1c2c(-c3ccccc3)csc2ncn1/N=C/c1c2ccccc2cc2ccccc12 | inconclusive: 29.1 µM [inhibitor, single point] | 
Cc1c(C(=O)/C=C/c2cccs2)oc2ccc(F)cc12 | inconclusive: 9.2 µM [inhibitor, partial curve] | 
Cc1nc(Sc2cccn2C)c(C(F)(F)F)c(=O)[nH]1 | inconclusive: 25.9 µM [inhibitor, partial curve] | 
